Holding throughout (test): flow cytometry on cells; 221 transfectants (50,000 cells) stained with Ig fusion proteins at 50 µg/ml for 2 h on ice (4°C) in FACS medium (1x PBS, 0.5% BSA, 0.05% NaN3); detected with PE-conjugated F(ab′)2 goat anti-human Fc; only the binder purified
(In flow cytometry, cells or beads pass a laser one at a time.)

The chains behind the UniProt entries cited, without tags or fusion partners. Residues count along the entry.
UniProt P43626, residues 22-245: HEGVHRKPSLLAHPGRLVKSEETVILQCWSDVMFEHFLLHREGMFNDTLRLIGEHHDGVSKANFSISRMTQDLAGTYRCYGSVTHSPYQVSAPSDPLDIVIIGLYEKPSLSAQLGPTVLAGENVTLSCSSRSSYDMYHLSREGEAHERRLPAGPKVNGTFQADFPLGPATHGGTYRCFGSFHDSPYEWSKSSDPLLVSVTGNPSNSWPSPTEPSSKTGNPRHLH

The target in assay [1] is HLA-G Q79R on 721.221 cells (human) (UniProt P17693).
For assay [2], the target named is HLA-G, wild type, on 721.221 cells (human) (UniProt P17693).
In assay [3] the target is HLA-G M76V+Q79R+T80N on 721.221 cells (human) (UniProt P17693).
The target in assay [4] is HLA-G T80N on 721.221 cells (human) (UniProt P17693).
The target of assay [5] is HLA-G M76V+Q79R on 721.221 cells (human) (UniProt P17693).
Assay [6] deals with HLA-G M76V+Q79R+T80K on 721.221 cells (human) (UniProt P17693).
Assay [7] deals with HLA-G M76V on 721.221 cells (human) (UniProt P17693).
Assay [8] deals with HLA-G T80K on 721.221 cells (human) (UniProt P17693).

Data on 1 substance can be found in publication PMC2812487.

Results are given in words; binding and its absence hold for the method and conditions named. Some binding calls cover weakened binding; strength is not graded here.

In the case of “KIR2DL1-Ig (from UniProt P43626 22-245) (Fc fusion)”, the binding entry in assay [1] is on record as “no binding (tested: 50 µg/ml)”; in assay [2], “no binding (tested: 50 µg/ml)”; in assay [3], “no binding (tested: 50 µg/ml)”; in assay [4] it was “no binding (tested: 50 µg/ml)”; in assay [5], “no binding (tested: 50 µg/ml)”; in assay [6], “binds”. For the same substance, the binding entry in assay [7] and in assay [8] was “no binding (tested: 50 µg/ml)” throughout.
